The text below walks through data of article PMC4336329 (PLoS ONE, 2015).

SMILES strings stand for the structures. Screen size: about 310,000 compounds; about 14,000 (4.5%) showed an effect of 50% or more. Effects have a minus sign here. Some of the results follow.
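Further: peak tail current of the secondary pulse compared with the same well before compound.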

For this test, the target named is human ether-à-go-go-related gene (hERG) potassium channel (human, UniProt Q12809). The experiment in a line: primary screen, population patch clamp on CHO cells stably expressing hERG.
Sequence of human ether-à-go-go-related gene (hERG) potassium channel (Q12809 whole entry, looked up): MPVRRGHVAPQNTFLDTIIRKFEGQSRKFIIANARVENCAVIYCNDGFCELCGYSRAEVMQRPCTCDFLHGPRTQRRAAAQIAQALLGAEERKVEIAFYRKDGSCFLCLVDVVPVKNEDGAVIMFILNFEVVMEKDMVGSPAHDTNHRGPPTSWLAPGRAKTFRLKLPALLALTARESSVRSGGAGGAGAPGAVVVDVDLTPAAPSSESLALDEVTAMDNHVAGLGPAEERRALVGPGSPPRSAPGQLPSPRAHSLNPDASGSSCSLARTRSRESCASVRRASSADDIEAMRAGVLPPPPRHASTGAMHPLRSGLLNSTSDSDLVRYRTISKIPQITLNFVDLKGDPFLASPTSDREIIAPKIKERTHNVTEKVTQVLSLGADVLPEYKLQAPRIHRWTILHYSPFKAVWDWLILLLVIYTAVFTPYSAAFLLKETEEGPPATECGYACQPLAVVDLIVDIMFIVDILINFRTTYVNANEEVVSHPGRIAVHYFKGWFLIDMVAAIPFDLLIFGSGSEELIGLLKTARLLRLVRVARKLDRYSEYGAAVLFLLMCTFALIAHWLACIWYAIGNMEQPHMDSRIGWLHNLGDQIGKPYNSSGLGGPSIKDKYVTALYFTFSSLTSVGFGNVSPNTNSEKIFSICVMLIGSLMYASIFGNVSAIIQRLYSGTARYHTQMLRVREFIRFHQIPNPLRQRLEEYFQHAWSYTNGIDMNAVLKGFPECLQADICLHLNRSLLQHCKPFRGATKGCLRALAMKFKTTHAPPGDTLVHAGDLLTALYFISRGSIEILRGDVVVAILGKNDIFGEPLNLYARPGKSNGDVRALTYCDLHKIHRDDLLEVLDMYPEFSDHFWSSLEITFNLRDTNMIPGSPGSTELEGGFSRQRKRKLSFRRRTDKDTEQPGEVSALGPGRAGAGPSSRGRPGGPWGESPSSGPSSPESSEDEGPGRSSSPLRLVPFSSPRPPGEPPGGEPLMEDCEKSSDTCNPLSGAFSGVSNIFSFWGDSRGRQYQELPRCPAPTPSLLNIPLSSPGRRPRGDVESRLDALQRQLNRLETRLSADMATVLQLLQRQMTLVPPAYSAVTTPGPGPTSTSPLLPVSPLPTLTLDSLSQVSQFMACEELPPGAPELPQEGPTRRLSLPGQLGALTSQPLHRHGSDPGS
`COC(=O)C1C(=O)C2=C(CC1C)NC(C)=C(C(=O)OC(C)C)C2c1ccc(C)o1` (centres unmarked): the “hERG current change (%, negative = inhibition) at 10uM” value is listed as -2.46%.
Regarding `O=C(CNC(=O)Cc1ccccc1)NCC(=O)OCC(=O)c1cccc2ccccc12`, the “hERG current change (%, negative = inhibition) at 10uM” value is -28%.
Turning to `CNC1=C([N+](=O)[O-])CC([N+](=O)[O-])=C(N2CCNCC2)N1C`, the “hERG current change (%, negative = inhibition) at 10uM” value is on record as 8.57%.
Regarding `O=C(Nc1c(C(=O)N2CCC(N3CCCCC3)CC2)oc2ccccc12)c1c(F)cccc1F`, the “hERG current change (%, negative = inhibition) at 10uM” value was -51.7%.
Consider `Cc1nn(Cc2ccc(C(=O)N3CCOCC3)o2)c(C)c1Br`, for which the “hERG current change (%, negative = inhibition) at 10uM” value is 9.37%.
The result for `CC(OC(=O)c1cc2sccc2n1C)C(=O)NCC1CCCO1` (centres unmarked) reads 0.798%.
On to `COc1ccc(S(=O)(=O)NCC(=O)NCc2cc(=O)n(C)c(=O)n2C)cc1C`, for which the “hERG current change (%, negative = inhibition) at 10uM” value is on record as 5.78%.
For `O=C(NC1(C(F)(F)F)NC(=O)N(Cc2ccccc2)C1=O)c1cccnc1` (centres unmarked), the “hERG current change (%, negative = inhibition) at 10uM” value was 10.4%.
The result for `Cc1ccc(C(=O)N2CCCC(N(C)Cc3ccccc3)C2)s1` (centres unmarked) reads -36.8%; that for `O=S(=O)(c1ccc2c(c1)OCCO2)N1CCC(c2nc3ccccc3s2)CC1`, 4.67%; that for `Nc1nc(-c2ccccc2)[nH]c(=O)c1N`, 6.04%.
Take `COc1cccc(-c2nnc3sc(C4CCCCC4)nn23)c1`: the “hERG current change (%, negative = inhibition) at 10uM” value was -45.2%.
Turning to `Cc1ccc(S(=O)(=O)N=Nc2c(O)[nH]c3ccccc23)cc1C`, the “hERG current change (%, negative = inhibition) at 10uM” value is given as 15.3%.
Take `COc1ccc(C2SCCN2C(=S)Nc2ccc(Cl)cc2)cc1` (centres unmarked): the “hERG current change (%, negative = inhibition) at 10uM” value is -3.49%.
Take `CC(=O)O.Fc1ccc(NC(=S)Nc2cccnc2)cc1`: the “hERG current change (%, negative = inhibition) at 10uM” value is reported as -1.99%.
The result for `Cc1ccc(C2=N/C(=C\N(C)C)C(=O)O2)cc1` reads -0.834%; that for `CSc1nnc(C)c(=O)n1COC(=O)/C=C/c1ccc2c(c1)OCO2`, -24.3%; that for `Clc1ccc2c(NCc3ccccc3)ccnc2c1`, -45.5%.
With `CCOC(=O)CSc1nnc(CNC(=O)c2cccs2)n1-c1cc(C)ccc1C`, the “hERG current change (%, negative = inhibition) at 10uM” value was -5.19%.
Consider `COc1ccc(NC(=O)CSc2nnc(Cc3ccc(C)cc3)c(=O)n2N)cc1OC`, for which the “hERG current change (%, negative = inhibition) at 10uM” value worked out at 1.64%.
With `NS(=O)(=O)c1ccc(N=Nc2c[nH]c(=O)c(O)c2)cc1`, the “hERG current change (%, negative = inhibition) at 10uM” value is reported as -6.37%.
Turning to `CCOc1ccc(N(CC(=O)NC2CCC(C)CC2)S(=O)(=O)c2c(C)noc2C)cc1` (centres unmarked), the “hERG current change (%, negative = inhibition) at 10uM” value is reported as 14.4%.
On to `COCCNC(=O)C12CC3CC(CC(Cl)(C3)C1)C2`, for which the “hERG current change (%, negative = inhibition) at 10uM” value is given as 19.2%.
Regarding `O=S(=O)(/N=C(\[O-])C[n+]1ccccc1)c1ccc(Cl)cc1`, the “hERG current change (%, negative = inhibition) at 10uM” value is 13.5%.
In the case of `O=C(CN1CCC(c2nc3ccccc3[nH]2)CC1)NCc1ccc2c(c1)OCO2`, the “hERG current change (%, negative = inhibition) at 10uM” value is given as -84.3%.
Next, `O=C(O)c1ccc(NC(=O)c2cc3ccccc3o2)cc1`: 15.9%; `C=CCN1C(=O)C(O)(CC(=O)c2ccc(N)cc2)c2ccccc21` (centres unmarked): 11.8%.
As to `Clc1cccc(C[n+]2cc(-c3ccccc3)n3c2CCC3)c1.[Br-]`, the “hERG current change (%, negative = inhibition) at 10uM” value was -25.7%.
`O=C(CC1S/C(=N/N=C/c2c[nH]c3ccc(OCc4ccccc4)cc23)NC1=O)Nc1ccccc1` (centres unmarked): the “hERG current change (%, negative = inhibition) at 10uM” value is listed as -0.703%.
For the compound `Cc1noc(NC(=O)c2ccc(Cl)cc2)c1Cl`, the “hERG current change (%, negative = inhibition) at 10uM” value was found to be 24.6%.
Next, `Cc1ccc(C(=O)c2c3ccc(N)cc3nn2CCC(N)=O)cc1`: 13.9%; `Cc1ccnc2nc(C(=O)OCC(=O)NCCc3ccccc3)nn12`: 16.6%.
Next, `O=C(CN1CCCC1)Nc1nnc(-c2cccs2)s1`: -5.47%.
Regarding `CNC(=O)C(=O)NCC1OCCCN1S(=O)(=O)c1ccc2c(c1)OCCO2` (centres unmarked), the “hERG current change (%, negative = inhibition) at 10uM” value is recorded as -7.36%.
Next, `COc1cc(NC(=O)c2ccccc2Cl)ccc1NC(=O)c1ccco1`: -8.94%; `O=S(=O)(c1ccc(-c2n[nH]c(=S)o2)cc1)N1CCCC1`: 42.4%.
The result for `CN=C(C)C1=C(O)C(C(=O)OC)C(C)(C)CC1=O` (centres unmarked) reads -6.03%; that for `CC(=O)N1CCN(S(=O)(=O)c2cccc(C(=O)Nc3cc(C(F)(F)F)ccc3N3CCOCC3)c2)CC1`, -42.3%.
Next, `COc1ccc(C(CC(=O)N2CCOCC2)c2c(OC)cc(OC)c3ccc(=O)oc23)cc1` (centres unmarked): -3.96%; `COC(=O)CSc1ncc(C#N)c(N)n1`: -13%.
`O=C(Nc1nc(-c2ccc(Oc3ccccc3)cc2)cs1)C1=COCCO1`: the “hERG current change (%, negative = inhibition) at 10uM” value is given as -14.3%.
`CCN(CC)c1cc(Cl)nc(N)n1`: the “hERG current change (%, negative = inhibition) at 10uM” value is 15.3%.
`Cc1ccc(Cn2c(C3CCCN3c3nc(-c4ccc(F)cc4)cs3)nc3cc(C(=O)NCCCO)ccc32)cc1` (centres unmarked): the “hERG current change (%, negative = inhibition) at 10uM” value turned out to be 2.29%.
Take `Cc1cccc(/N=C/c2nc(-c3ccccc3Br)oc2O)n1`: the “hERG current change (%, negative = inhibition) at 10uM” value worked out at 15.8%.
On to `CCN(CC)S(=O)(=O)c1ccc(NC(=O)COc2c(OC)cccc2OC)cc1`, for which the “hERG current change (%, negative = inhibition) at 10uM” value was found to be 16.8%.
Next, `CCC1(CC)Nc2ccccc2C(=O)N1c1ccc(NC(C)=O)cc1`: 0.446%.
Turning to `CCOC(=O)N1CCN(C(=O)CS(=O)(=O)c2cn(Cc3cccc(F)c3)c3ccccc23)CC1`, the “hERG current change (%, negative = inhibition) at 10uM” value amounted to 3.52%.
The result for `C/C(CC(=O)Nc1ccc(N(C)C)cc1)=N\NC(=O)c1ccc(F)cc1` reads 0.609%.
In the case of `CCN(CC)c1ccc(C(=O)N/N=C(\C)c2ccc(OC)c(OC)c2)cc1`, the “hERG current change (%, negative = inhibition) at 10uM” value is recorded as 3.53%.
Regarding `O=C(NCc1ccccn1)C(=O)NCC1OCCN1S(=O)(=O)c1ccc([N+](=O)[O-])cc1` (centres unmarked), the “hERG current change (%, negative = inhibition) at 10uM” value was -31.9%.
Turning to `Cc1nc2c(=O)[nH]c(=S)n(C)c2nc1C`, the “hERG current change (%, negative = inhibition) at 10uM” value is listed as 14.6%.
Next, `COc1ccc(/C=C/C(=O)Oc2cccc(/C=N/NC(=O)c3cccc(F)c3)c2)cc1`: -22.5%; `CCOC(=O)C1(C)/C(=N/Nc2ccccc2Cl)C(=O)C(=O)N1c1ccccc1` (centres unmarked): 6.03%.
The result for `CCN(CC)CCNc1c2c(c(C#N)c3nc4ccccc4n13)CCCC2` reads -45.3%; that for `COc1ccc(-c2[nH]ncc2CN(C)Cc2cc(C)[nH]n2)c(F)c1`, 12%; that for `CCC/C(C)=N\Nc1nc2c(c(=O)n(C)c(=O)n2C)n1C`, 7.47%.
